# Experimental data from the supplement of paper PMC8728848.
# The other results are listed elsewhere or left out.
# B1: CBM40 CPF071 (Clostridium perfringens) (protein)
# chain: MAHHHHHHVGTGSNDDDDKSPDPMLSSLGEYKDINLESSNASNITYDLEKYKNLDEGTIVVRFNSKDSKIQSLLGISNSKTKNGYFNFYVTNSRVGFELRNQKNEGNTQNGTENLVHMYKDVALNDGDNTVALKIEKNKGYKLFLNGKMIKEVKDTNTKFLNNIENLDSAFIGKTNRYGQSNEYNFKGNIGFMNIYNEPLGDDYLLSKTGETK
# What was measured:
# Test in all cases: glycan array binding signal (z-score within array); higher = stronger binding
# Conditions in all cases: glycan notation: IUPAC condensed, linker removed
# [1] = biological target: Neu5Ac(a2-3)Gal(b1-3)GlcNAc6S
# Outline: (§1)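 Glycan array binding is given as a within-array Z-score, which can be read as non-binding when negative. The arrays, 3228 of them, came from the Consortium for Functional Glycomics database and were retained only where the protein sequence was available. Z-scores were averaged across arrays of the same protein sequence at different concentrations or buffers and across linkers.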
# [2] = biological target: Neu5Ac(a2-3)Gal(b1-3)[Fuc(a1-4)]GlcNAc
# Outline: as §1
# [3] = biological target: Neu5Ac(a2-3)Gal(b1-3)[Fuc(a1-4)]GlcNAc(b1-3)Gal(b1-3)[Fuc(a1-4)]GlcNAc
# Outline: as §1
# [4] = biological target: Neu5Ac(a2-3)Gal(b1-3)[Fuc(a1-4)]GlcNAc(b1-3)Gal(b1-4)[Fuc(a1-3)]GlcNAc
# Outline: as §1
# [5] = biological target: Neu5Ac(a2-3)Gal(b1-3)[GlcNAc(b1-6)]GalNAc
# Outline: as §1
# [6] = biological target: Neu5Ac(a2-3)Gal(b1-3)[Neu5Ac(a2-6)]GalNAc
# Outline: as §1
# [7] = biological target: Neu5Ac(a2-3)Gal(b1-3)[Neu5Ac(a2-6)]GlcNAc(b1-3)[Fuc(a1-3)[Gal(b1-4)]GlcNAc(b1-6)]Gal(b1-4)Glc
# Outline: as §1
# [8] = biological target: Neu5Ac(a2-3)Gal(b1-3)]Neu5Ac(a2-3)Gal(b1-4)]GlcNAc
# Outline: as §1
# [9] = biological target: Neu5Ac(a2-3)Gal(b1-4)Glc
# Outline: as §1
# [10] = biological target: Neu5Ac(a2-3)Gal(b1-4)GlcNAc
# Outline: as §1
# [11] = biological target: Neu5Ac(a2-3)Gal(b1-4)GlcNAc(b1-2)Man
# Outline: as §1
# [12] = biological target: Neu5Ac(a2-3)Gal(b1-4)GlcNAc(b1-2)Man(a1-3)[GlcNAc(b1-4)][Neu5Ac(a2-3)Gal(b1-4)GlcNAc(b1-2)Man(a1-6)]Man(b1-4)GlcNAc(b1-4)GlcNAc
# Outline: as §1
# [13] = biological target: Neu5Ac(a2-3)Gal(b1-4)GlcNAc(b1-2)Man(a1-3)[Neu5Ac(a2-3)Gal(b1-4)GlcNAc(b1-2)Man(a1-6)]Man(b1-4)GlcNAc(b1-4)GlcNAc
# Outline: as §1
# [14] = biological target: Neu5Ac(a2-3)Gal(b1-4)GlcNAc(b1-2)Man(a1-3)[Neu5Ac(a2-3)Gal(b1-4)GlcNAc(b1-2)Man(a1-6)]Man(b1-4)GlcNAc(b1-4)[Fuc(a1-6)]GlcNAc
# Outline: as §1
# [15] = biological target: Neu5Ac(a2-3)Gal(b1-4)GlcNAc(b1-2)Man(a1-3)[Neu5Ac(a2-6)Gal(b1-4)GlcNAc(b1-2)Man(a1-6)]Man(b1-4)GlcNAc(b1-4)GlcNAc
# Outline: as §1
# [16] = biological target: Neu5Ac(a2-3)Gal(b1-4)GlcNAc(b1-2)[Neu5Ac(a2-3)Gal(b1-4)GlcNAc(b1-4)]Man(a1-3)[GlcNAc(b1-4)][Neu5Ac(a2-3)Gal(b1-4)GlcNAc(b1-2)[Neu5Ac(a2-3)Gal(b1-4)GlcNAc(b1-6)]Man(a1-6)]Man(b1-4)GlcNAc(b1-4)GlcNAc
# Outline: as §1
# [17] = biological target: Neu5Ac(a2-3)Gal(b1-4)GlcNAc(b1-2)[Neu5Ac(a2-3)Gal(b1-4)GlcNAc(b1-4)]Man(a1-3)[GlcNAc(b1-4)][Neu5Ac(a2-3)Gal(b1-4)GlcNAc(b1-4)Man(a1-6)]Man(b1-4)GlcNAc(b1-4)GlcNAc
# Outline: as §1
# [18] = biological target: Neu5Ac(a2-3)Gal(b1-4)GlcNAc(b1-2)[Neu5Ac(a2-3)Gal(b1-4)GlcNAc(b1-6)]Man(a1-6)[Neu5Ac(a2-3)Gal(b1-4)GlcNAc(b1-2)Man(a1-3)][GlcNAc(b1-4)]Man(b1-4)GlcNAc(b1-4)GlcNAc
# Outline: as §1
# [19] = biological target: Neu5Ac(a2-3)Gal(b1-4)GlcNAc(b1-3)Gal
# Outline: as §1
# [20] = biological target: Neu5Ac(a2-3)Gal(b1-4)GlcNAc(b1-3)Gal(b1-3)GlcNAc
# Outline: as §1
# [21] = biological target: Neu5Ac(a2-3)Gal(b1-4)GlcNAc(b1-3)Gal(b1-4)GlcNAc
# Outline: as §1
# [22] = biological target: Neu5Ac(a2-3)Gal(b1-4)GlcNAc(b1-3)Gal(b1-4)GlcNAc(b1-2)Man(a1-3)[Neu5Ac(a2-3)Gal(b1-4)GlcNAc(b1-3)Gal(b1-4)GlcNAc(b1-2)Man(a1-6)]Man(b1-4)GlcNAc(b1-4)GlcNAc
# Outline: as §1
# [23] = biological target: Neu5Ac(a2-3)Gal(b1-4)GlcNAc(b1-3)Gal(b1-4)GlcNAc(b1-3)Gal(b1-4)GlcNAc
# Outline: as §1
# [24] = biological target: Neu5Ac(a2-3)Gal(b1-4)GlcNAc(b1-3)Gal(b1-4)GlcNAc(b1-3)Gal(b1-4)GlcNAc(b1-2)Man(a1-3)[Neu5Ac(a2-3)Gal(b1-4)GlcNAc(b1-3)Gal(b1-4)GlcNAc(b1-3)Gal(b1-4)GlcNAc(b1-2)Man(a1-6)]GalNAc
# Outline: as §1
# [25] = biological target: Neu5Ac(a2-3)Gal(b1-4)GlcNAc(b1-3)Gal(b1-4)GlcNAc(b1-3)GalNAc
# Outline: as §1
# [26] = biological target: Neu5Ac(a2-3)Gal(b1-4)GlcNAc(b1-3)Gal(b1-4)GlcNAc(b1-3)[Neu5Ac(a2-3)Gal(b1-4)GlcNAc(b1-3)Gal(b1-4)GlcNAc(b1-6)]GalNAc
# Outline: as §1
# [27] = biological target: Neu5Ac(a2-3)Gal(b1-4)GlcNAc(b1-3)Gal(b1-4)GlcNAc(b1-6)[Gal(b1-3)]GalNAc
# Outline: as §1
# [28] = biological target: Neu5Ac(a2-3)Gal(b1-4)GlcNAc(b1-3)Gal(b1-4)[Fuc(a1-3)]GlcNAc
# Outline: as §1
# [29] = biological target: Neu5Ac(a2-3)Gal(b1-4)GlcNAc(b1-3)GalNAc
# Outline: as §1
# [30] = biological target: Neu5Ac(a2-3)Gal(b1-4)GlcNAc(b1-3)[Neu5Ac(a2-3)Gal(b1-4)GlcNAc(b1-6)]GalNAc
# Outline: as §1
binder,measurement,setting,value
B1,glycan array binding signal (z-score),[1],0.31
same,glycan array binding signal (z-score),[2],2.38
same,glycan array binding signal (z-score),[3],0.256
same,glycan array binding signal (z-score),[4],1.09
same,glycan array binding signal (z-score),[5],-0.254
same,glycan array binding signal (z-score),[6],-0.107
same,glycan array binding signal (z-score),[7],1.15
same,glycan array binding signal (z-score),[8],10.7
same,glycan array binding signal (z-score),[9],1.88
same,glycan array binding signal (z-score),[10],1.39
same,glycan array binding signal (z-score),[11],0.05
same,glycan array binding signal (z-score),[12],0.421
same,glycan array binding signal (z-score),[13],-0.305
same,glycan array binding signal (z-score),[14],0.711
same,glycan array binding signal (z-score),[15],0.048
same,glycan array binding signal (z-score),[16],-0.082
same,glycan array binding signal (z-score),[17],-0.287
same,glycan array binding signal (z-score),[18],0.7
same,glycan array binding signal (z-score),[19],1.47
same,glycan array binding signal (z-score),[20],0.735
same,glycan array binding signal (z-score),[21],1.96
same,glycan array binding signal (z-score),[22],1.05
same,glycan array binding signal (z-score),[23],1.63
same,glycan array binding signal (z-score),[24],0.275
same,glycan array binding signal (z-score),[25],0.084
same,glycan array binding signal (z-score),[26],0.425
same,glycan array binding signal (z-score),[27],-0.141
same,glycan array binding signal (z-score),[28],-0.365
same,glycan array binding signal (z-score),[29],0.209
same,glycan array binding signal (z-score),[30],0.202
